Results are given in words; binding and its absence hold for the method and conditions named. Some binding calls cover weakened binding; strength is not graded here. For some assays here: Tags and fused reporters may be left off the sequences shown.
Columns and labels:
[1] = target: T1, PNPase (E. coli polynucleotide phosphorylase, full-length) (E. coli) (UniProt P05055); test: cryo-EM structure; preliminary map of full-length PNPase co-expressed and co-purified with RNase E 960–1061
T1 sequence: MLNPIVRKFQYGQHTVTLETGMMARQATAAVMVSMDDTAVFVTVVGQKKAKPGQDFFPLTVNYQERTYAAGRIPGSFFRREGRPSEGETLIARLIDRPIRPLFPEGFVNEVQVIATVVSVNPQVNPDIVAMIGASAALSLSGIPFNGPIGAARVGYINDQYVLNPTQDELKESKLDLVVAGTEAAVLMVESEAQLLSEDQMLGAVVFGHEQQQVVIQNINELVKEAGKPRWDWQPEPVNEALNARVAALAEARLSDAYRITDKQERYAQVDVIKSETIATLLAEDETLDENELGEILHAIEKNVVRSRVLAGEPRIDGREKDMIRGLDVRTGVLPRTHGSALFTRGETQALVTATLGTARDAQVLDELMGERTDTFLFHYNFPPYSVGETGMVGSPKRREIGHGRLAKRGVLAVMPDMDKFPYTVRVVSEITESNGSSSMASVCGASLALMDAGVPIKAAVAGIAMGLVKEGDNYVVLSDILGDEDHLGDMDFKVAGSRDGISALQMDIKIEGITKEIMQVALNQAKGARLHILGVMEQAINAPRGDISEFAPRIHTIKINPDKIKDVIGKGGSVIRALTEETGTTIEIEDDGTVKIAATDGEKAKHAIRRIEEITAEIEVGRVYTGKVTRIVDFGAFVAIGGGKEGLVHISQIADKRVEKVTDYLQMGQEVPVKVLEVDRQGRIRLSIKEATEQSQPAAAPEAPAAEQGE

Protein sequences, listed by entry. Tags and fused reporters are not part of them. Residues count along the entry.
RNase E 960–1061 (P21513, residues 960-1061): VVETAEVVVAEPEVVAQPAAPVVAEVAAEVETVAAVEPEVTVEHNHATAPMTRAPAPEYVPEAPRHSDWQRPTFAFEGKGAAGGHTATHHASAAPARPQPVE
RNase E 960–1039 (P21513, residues 960-1039): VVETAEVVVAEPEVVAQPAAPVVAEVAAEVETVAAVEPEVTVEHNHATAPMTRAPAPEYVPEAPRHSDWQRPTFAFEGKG
RNase E 1000–1061 (P21513, residues 1000-1061): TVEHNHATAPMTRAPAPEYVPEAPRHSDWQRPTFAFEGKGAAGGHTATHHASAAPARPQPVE
UniProt Q9HZM8, residues 883-1057: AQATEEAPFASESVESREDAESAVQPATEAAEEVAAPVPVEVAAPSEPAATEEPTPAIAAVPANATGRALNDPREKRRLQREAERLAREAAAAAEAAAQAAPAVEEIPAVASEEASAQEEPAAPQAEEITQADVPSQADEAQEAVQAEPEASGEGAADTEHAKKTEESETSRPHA

[2] = target: T2, E. coli PNPase core (E. coli, UniProt P05055 1-552); test: cryo-EM structure; PNPase core with RNase E peptide 960–1061; resolution of the peptide insufficient to align the sequence
T2 construct: polynucleotide phosphorylase (PNPase) core lacking the KH and S1 domains, E. coli, aa 1–552 by the methods (1–550 in the results and a legend); also called PNPase core (1–550); PNPase core (aa 1–552); source: E. coli Evo21(DE3), purified (Ni-NTA, intein cleavage, HIC, Q, Superdex 200); not shown: Mycobacterium xenopi GyrA intein, C-terminal, cleaved; His8, C-terminal, cleaved
T2 sequence (looked up): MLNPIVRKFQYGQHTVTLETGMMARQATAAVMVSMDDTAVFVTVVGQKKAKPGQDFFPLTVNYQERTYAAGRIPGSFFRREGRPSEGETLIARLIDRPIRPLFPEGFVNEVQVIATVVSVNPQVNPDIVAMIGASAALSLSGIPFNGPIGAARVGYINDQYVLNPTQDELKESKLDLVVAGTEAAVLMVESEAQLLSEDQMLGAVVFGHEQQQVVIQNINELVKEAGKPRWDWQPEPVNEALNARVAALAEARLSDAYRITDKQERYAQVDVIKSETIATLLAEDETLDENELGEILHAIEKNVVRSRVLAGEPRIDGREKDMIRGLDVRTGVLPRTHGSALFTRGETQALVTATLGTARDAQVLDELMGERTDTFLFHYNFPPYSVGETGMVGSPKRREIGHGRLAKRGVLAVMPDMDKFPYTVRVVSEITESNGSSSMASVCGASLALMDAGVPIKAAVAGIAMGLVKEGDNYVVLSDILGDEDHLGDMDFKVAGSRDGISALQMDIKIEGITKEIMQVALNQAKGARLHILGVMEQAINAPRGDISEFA

[3] = target: T1, PNPase (E. coli polynucleotide phosphorylase, full-length) (E. coli); test: co-purification; PNPase and RNase E 1000–1061 co-expressed in E. coli BL21(DE3), purified together by ammonium sulfate, Q, butyl-Sepharose HIC and Superdex 200
[4] = target: T3, P. aeruginosa PNPase core (Pseudomonas aeruginosa (strain PAO1)) (UniProt Q9HV59); test: cryo-EM structure; P. aeruginosa PNPase core assembled with MBP-tagged RNase E C-terminal end; both purified
T3 sequence: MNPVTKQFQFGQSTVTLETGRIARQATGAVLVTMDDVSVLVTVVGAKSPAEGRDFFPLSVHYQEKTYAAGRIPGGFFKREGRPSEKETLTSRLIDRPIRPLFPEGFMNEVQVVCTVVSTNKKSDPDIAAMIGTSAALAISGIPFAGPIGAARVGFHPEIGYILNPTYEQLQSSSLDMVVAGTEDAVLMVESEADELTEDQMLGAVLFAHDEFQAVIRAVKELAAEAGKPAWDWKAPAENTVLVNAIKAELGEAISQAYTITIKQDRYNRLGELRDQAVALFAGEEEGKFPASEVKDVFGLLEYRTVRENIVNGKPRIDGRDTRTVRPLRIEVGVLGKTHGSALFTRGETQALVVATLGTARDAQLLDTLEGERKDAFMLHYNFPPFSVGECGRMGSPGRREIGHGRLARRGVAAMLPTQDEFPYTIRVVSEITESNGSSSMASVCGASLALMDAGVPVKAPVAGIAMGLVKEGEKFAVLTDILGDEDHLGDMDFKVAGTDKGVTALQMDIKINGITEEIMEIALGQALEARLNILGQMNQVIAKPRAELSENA

[5] = target: T4, PNPase carrying a C-terminal Hisx6 tag (E. coli polynucleotide phosphorylase) (E. coli) (UniProt P05055); test: condition: 9000 nM (highest concentration, told in the methods for RNase E 960–1038); SPR; PNPase with C-terminal His6 tag immobilised on Series S Sensor Chip NTA (5 RU); Biacore T200, 25°C; 20 mM HEPES pH 7.2, 150 mM NaCl, 5 mM MgCl2, 0.5 mM TCEP, 0.05% Tween 20; six peptide concentrations up to 9000 nM (up to 5000 nM for RNase E 985–1061); contact 60 s, dissociation 120 s; both …
T4 sequence: T1 sequence

## RNase E 960–1061 (from UniProt P21513 960-1061) (domain or fragment)
[1]
  binding: binds
[2]
  binding: binds

## RNase E 1000–1061 (from UniProt P21513 1000-1061) (domain or fragment)
[3]
  binding: binds

## P. aeruginosa MBP-tagged C-terminal end of RNase E (883 – 1057) (from UniProt Q9HZM8 883-1057) (domain or fragment)
[4]
  binding: binds

## RNase E 960–1039 (from UniProt P21513 960-1039) (domain or fragment)
[5]
  binding: no binding

— publication PMC12489471, “A multi-dentate, cooperative interaction between endo- and exo-ribonucleases within the bacterial RNA degradosome” (Nucleic Acids Research, 2025)
